# Reference: PubChem BioAssay AID504332 (National Center for Advancing Translational Sciences (NCATS), 2011)
# Screen size: about 350,000 compounds; about 31,000 (8.9%) were called active. This list was built around the results that the source calls inconclusive (neither active nor inactive); the mix of calls is not that of the screen. Calls come from the whole dose curve; as a rule, active = well fitted inhibition curve with a large enough effect; inconclusive = small, poorly fitted or top-dose-only effect; inactive = no such curve, though single readings can be large or run the other way. Potencies of inconclusive entries are doubtful fits and often do not repeat.
# Target: Histone-lysine N-methyltransferase EHMT2 (Homo sapiens) (UniProt Q96KQ7)
# Test: qHTS Assay for Inhibitors of Histone Lysine Methyltransferase G9a; note: nearly all actives have a fitted effect of over 75% in size
# Conditions: G9a H3K9 monomethylation, AlphaScreen, 2 h; activity, negative = inhibition: at 59 µM (top of the series) unless noted
# Procedure, shortened: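 Chemiluminescent proximity detection of H3K9 monomethylation, read after 10 min bead incubation in the dark. Reaction: 20 nM G9a, 500 nM biotin-H3K9 peptide, 20 uM SAM cofactor, 2 h, room temperature, following 15 min enzyme-compound preincubation.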
# % is set by controls: 0 for no effect and ±100 for the full control effect; potency is the fitted concentration of half-maximal effect; tags give direction and shape of the fitted curve.
# UniProt Q96KQ7, sequence (Q96KQ7 whole entry, looked up): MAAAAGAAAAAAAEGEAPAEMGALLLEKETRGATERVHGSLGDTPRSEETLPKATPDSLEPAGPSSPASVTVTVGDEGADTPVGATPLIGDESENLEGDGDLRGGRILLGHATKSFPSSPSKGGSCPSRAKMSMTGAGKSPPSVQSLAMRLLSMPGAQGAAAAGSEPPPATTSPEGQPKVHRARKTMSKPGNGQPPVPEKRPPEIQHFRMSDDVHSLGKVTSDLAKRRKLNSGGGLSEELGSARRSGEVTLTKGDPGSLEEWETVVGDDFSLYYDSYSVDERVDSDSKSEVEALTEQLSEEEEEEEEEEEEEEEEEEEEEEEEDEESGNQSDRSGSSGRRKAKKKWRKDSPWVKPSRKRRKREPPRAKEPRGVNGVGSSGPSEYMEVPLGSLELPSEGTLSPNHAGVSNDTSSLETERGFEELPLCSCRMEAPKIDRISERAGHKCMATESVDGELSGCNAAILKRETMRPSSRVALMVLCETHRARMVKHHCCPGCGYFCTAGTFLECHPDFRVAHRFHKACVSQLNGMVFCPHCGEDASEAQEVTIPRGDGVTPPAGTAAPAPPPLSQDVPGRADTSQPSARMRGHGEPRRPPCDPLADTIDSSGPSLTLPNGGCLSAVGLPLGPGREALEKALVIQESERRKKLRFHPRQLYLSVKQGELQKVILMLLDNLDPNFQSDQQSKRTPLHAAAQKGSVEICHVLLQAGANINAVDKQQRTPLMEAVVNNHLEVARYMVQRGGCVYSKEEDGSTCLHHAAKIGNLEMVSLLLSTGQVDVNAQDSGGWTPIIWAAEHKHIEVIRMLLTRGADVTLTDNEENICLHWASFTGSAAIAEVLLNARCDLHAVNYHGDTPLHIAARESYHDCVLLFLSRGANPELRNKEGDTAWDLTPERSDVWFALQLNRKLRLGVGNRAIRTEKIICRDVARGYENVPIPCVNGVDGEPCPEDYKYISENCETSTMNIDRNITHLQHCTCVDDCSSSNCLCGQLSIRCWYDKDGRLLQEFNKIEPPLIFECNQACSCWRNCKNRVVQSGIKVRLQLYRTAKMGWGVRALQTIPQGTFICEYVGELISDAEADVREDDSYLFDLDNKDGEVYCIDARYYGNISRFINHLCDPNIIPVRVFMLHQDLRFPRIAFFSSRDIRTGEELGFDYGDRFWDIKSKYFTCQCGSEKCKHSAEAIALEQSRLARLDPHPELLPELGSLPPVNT
SMILES,"activity, negative = inhibition",Potency
COc1ccc(-c2nnc(SCC(=O)NCc3ccco3)o2)cc1,inconclusive: -102% [inhibitor],
CCn1nc(-c2ccccc2)c(-c2ccccc2)c(C(=O)Nc2nc(C)c(C(C)=O)s2)c1=O,,"inconclusive: 20 µM [inhibitor, partial curve, poor fit]"
O=C(CSc1ccc2c(c1)OCCO2)N1CCN(c2ccccc2O)CC1,,active: 50.1 µM
O=C1c2ccccc2NC(c2ccc(-c3cccc([N+](=O)[O-])c3)o2)N1O (configuration not stated),,"inconclusive: 89.1 µM [inhibitor, single point]"
CN(C)S(=O)(=O)c1cccc(NC(=O)c2ccccc2OCc2ccc(F)cc2)c1,,"inconclusive: 3.98 µM [inhibitor, partial curve, poor fit]"
COc1ccc(N2CCN(C(=O)c3cc(C)oc3C)CC2)cc1,,"inconclusive: 70.8 µM [inhibitor, single point]"
CC1(C)CC(=O)c2sc(NC(=O)CN3C(=O)CCC3=O)nc2C1,,"inconclusive: 56.2 µM [inhibitor, partial curve, poor fit]"
CCn1nnc2cc(C(=O)Nc3ccc(C)c(Cl)c3)ccc21,inactive: -14.3%,
CN(CCc1cnn(C)c1)Cc1nc(CC2CC2)no1,,"inconclusive: 89.1 µM [inhibitor, single point]"
O=C(Nc1cc(N2CCOCC2)ncn1)NC1(C(F)(F)F)Oc2ccc(Cl)cc2O1 (configuration not stated),inconclusive: -132% [inhibitor],
CCOc1ccc(-c2nnc(SCC(=O)Nc3ccc(C)cc3Cl)o2)cc1,,"inconclusive: 39.8 µM [inhibitor, partial curve, poor fit]"
CN(C)N(C(=O)c1cc(-c2cccs2)nn1-c1ccccc1)C1CCS(=O)(=O)C1 (configuration not stated),,active: 17.8 µM
COc1ccccc1C(CNC(=O)c1cccc(NS(=O)(=O)c2ccc(Br)cc2)c1)N(C)C (configuration not stated),inactive: -36.2% [at 102 µM],
O=C(COC(=O)/C=C/c1cc(Br)ccc1F)Nc1ccc2[nH]c(=O)[nH]c2c1,,"inconclusive: 89.1 µM [inhibitor, partial curve, poor fit]"
O=C(CSc1ncn(-c2ccccc2)n1)Nc1nc2ccccc2s1,,"inconclusive: 2.51 µM [inhibitor, partial curve, poor fit]"
CCCCC(=O)N1CCN(c2ccc(OC)cc2[N+](=O)[O-])CC1,,"inconclusive: 17.8 µM [inhibitor, single point]"
Cc1nn(S(=O)(=O)c2ccc(C(C)(C)C)cc2)c(C)c1S(=O)(=O)N1CCC(C)CC1,,"inconclusive: 3.98 µM [inhibitor, partial curve, poor fit]"
